In test [1] the target is T1, endogenous SPHK2 (sphingosine kinase 2) (human (endogenous in A549)) (UniProt Q9NRA0).
T1 sequence: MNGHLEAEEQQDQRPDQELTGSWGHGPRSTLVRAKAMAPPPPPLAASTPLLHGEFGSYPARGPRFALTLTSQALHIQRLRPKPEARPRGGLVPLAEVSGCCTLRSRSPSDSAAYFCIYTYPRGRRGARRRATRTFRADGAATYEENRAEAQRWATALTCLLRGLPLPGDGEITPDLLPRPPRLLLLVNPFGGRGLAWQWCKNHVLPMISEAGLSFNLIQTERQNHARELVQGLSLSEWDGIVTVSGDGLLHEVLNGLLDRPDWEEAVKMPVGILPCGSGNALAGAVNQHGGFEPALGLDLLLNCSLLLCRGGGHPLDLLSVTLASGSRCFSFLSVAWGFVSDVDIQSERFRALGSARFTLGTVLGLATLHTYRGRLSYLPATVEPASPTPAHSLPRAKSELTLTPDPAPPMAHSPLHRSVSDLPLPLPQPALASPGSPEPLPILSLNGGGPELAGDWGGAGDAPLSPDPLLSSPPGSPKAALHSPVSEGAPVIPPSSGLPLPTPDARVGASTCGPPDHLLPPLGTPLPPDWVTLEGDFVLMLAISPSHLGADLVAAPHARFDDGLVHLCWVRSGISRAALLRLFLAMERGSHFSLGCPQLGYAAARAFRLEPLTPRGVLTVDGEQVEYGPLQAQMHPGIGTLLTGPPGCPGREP
Kind of test: co-IP.

The chains behind the UniProt entries cited, without tags or fusion partners.
UniProt Q13547: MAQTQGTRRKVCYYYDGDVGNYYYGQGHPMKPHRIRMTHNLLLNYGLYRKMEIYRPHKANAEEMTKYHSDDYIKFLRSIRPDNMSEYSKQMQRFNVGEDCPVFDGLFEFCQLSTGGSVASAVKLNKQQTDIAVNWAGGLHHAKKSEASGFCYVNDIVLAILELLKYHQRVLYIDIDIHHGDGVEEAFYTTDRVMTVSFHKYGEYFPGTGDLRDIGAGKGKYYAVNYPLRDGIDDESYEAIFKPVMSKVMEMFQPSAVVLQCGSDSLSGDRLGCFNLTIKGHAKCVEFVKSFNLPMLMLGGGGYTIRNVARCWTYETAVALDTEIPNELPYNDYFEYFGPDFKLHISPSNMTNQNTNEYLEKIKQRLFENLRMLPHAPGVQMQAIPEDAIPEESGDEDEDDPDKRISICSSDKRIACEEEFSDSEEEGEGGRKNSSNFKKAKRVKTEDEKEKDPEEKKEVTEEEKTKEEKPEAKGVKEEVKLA
UniProt O43151: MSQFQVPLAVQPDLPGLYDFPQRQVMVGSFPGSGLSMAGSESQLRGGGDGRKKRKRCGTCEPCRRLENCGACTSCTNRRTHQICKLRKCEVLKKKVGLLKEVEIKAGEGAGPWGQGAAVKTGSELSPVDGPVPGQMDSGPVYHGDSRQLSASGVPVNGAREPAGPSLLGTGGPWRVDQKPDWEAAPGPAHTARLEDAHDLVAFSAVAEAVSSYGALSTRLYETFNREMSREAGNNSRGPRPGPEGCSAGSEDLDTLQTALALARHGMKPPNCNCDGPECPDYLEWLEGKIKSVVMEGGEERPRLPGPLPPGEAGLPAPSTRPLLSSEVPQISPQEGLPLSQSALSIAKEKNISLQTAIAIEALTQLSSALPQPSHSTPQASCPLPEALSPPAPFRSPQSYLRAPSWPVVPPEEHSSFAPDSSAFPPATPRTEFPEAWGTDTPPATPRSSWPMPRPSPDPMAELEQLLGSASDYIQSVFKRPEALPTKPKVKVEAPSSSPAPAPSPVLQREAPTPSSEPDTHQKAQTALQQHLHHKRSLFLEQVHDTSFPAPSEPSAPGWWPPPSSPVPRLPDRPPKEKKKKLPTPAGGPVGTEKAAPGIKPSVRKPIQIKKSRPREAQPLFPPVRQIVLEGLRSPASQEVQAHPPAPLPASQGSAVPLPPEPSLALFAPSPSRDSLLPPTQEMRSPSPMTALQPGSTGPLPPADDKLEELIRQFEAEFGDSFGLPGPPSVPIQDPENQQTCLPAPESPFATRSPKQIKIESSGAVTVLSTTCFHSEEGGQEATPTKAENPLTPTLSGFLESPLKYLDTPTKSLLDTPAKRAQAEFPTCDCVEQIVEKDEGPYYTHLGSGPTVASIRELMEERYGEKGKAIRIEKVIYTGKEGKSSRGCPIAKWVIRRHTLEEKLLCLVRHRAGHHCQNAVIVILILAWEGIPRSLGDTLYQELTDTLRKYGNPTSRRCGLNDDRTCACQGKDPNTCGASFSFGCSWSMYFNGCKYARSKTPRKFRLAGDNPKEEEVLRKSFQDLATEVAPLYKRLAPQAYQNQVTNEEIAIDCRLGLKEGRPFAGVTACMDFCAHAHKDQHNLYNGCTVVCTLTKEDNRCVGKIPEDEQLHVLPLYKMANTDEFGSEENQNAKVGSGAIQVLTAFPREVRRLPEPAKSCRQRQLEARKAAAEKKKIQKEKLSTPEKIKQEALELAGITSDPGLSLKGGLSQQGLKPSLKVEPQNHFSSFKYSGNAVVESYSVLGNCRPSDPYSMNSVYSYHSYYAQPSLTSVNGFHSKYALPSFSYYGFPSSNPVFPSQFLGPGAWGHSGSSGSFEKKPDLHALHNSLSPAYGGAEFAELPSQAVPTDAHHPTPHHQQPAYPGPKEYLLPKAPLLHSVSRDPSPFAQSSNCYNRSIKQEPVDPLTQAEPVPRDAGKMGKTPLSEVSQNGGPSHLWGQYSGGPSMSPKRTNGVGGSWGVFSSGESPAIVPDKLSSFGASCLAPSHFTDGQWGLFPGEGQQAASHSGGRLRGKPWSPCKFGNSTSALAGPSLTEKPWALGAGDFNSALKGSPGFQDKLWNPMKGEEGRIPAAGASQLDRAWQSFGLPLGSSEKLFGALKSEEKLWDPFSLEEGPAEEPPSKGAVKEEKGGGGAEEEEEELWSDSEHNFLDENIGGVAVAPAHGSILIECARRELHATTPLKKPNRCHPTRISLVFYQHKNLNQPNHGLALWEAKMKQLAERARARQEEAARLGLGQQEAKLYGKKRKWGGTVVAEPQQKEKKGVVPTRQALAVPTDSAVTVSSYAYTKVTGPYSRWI

Test [2] deals with T2, Myc-SPHK2-G212E (catalytic-incompetent mutant) (human) (UniProt Q9NRA0).
T2 sequence: T1 sequence with G212E
The test is described as follows: co-IP; A549 cells transfected with Myc-tagged SPHK2 constructs; Triton X-100 lysis buffer (20 mM Tris-HCl pH 7.5, 100 mM NaCl, 0.5 mM EDTA, 5% glycerol, 1% Triton X-100); anti-Myc antibody and protein A/G beads, 4°C 4 h; blots for endogenous HDAC1 and TET3.

The target in test [3] is T3, Myc-tagged SPHK2 (sphingosine kinase 2), full length (human) (UniProt Q9NRA0).
T3 sequence: T1 sequence
Described as above.

Test [4] has as its target T1, endogenous SPHK2 (sphingosine kinase 2) (human (endogenous in A549)). The test is described as follows: co-IP; uninfected A549 cells; endogenous SPHK2 precipitated with anti-human SPHK2 polyclonal antibody (Proteintech 17096-1-AP); blots for HDAC1 and TET3.
Test [5] concerns the target T4, Myc-SPHK2-F1 (Δ1–69) (human) (UniProt Q9NRA0).
T4 sequence: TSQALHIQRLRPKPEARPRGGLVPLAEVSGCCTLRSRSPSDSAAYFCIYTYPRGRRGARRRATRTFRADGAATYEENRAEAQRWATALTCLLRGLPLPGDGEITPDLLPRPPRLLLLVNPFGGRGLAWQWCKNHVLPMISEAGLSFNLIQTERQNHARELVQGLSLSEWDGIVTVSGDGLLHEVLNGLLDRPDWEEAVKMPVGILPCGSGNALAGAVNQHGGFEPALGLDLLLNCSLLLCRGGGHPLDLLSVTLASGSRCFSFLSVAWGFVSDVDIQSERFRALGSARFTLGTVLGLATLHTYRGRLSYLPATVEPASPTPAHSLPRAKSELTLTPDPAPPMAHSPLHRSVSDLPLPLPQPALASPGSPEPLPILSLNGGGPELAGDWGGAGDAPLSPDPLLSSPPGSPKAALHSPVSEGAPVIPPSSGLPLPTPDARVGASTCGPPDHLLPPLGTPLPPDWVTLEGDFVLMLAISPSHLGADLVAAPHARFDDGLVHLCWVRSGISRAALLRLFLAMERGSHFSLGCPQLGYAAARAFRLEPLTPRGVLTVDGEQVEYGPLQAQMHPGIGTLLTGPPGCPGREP
Kind of test: co-IP; A549 cells transfected with Myc-tagged SPHK2 constructs; Triton X-100 lysis buffer (20 mM Tris-HCl pH 7.5, 100 mM NaCl, 0.5 mM EDTA, 5% glycerol, 1% Triton X-100); anti-Myc antibody and protein A/G beads, 4°C 4 h; blots for endogenous HDAC1 and TET3.

Test [6] addresses T5, Myc-SPHK2-F2 (Δ391–514) (human) (UniProt Q9NRA0).
T5 sequence: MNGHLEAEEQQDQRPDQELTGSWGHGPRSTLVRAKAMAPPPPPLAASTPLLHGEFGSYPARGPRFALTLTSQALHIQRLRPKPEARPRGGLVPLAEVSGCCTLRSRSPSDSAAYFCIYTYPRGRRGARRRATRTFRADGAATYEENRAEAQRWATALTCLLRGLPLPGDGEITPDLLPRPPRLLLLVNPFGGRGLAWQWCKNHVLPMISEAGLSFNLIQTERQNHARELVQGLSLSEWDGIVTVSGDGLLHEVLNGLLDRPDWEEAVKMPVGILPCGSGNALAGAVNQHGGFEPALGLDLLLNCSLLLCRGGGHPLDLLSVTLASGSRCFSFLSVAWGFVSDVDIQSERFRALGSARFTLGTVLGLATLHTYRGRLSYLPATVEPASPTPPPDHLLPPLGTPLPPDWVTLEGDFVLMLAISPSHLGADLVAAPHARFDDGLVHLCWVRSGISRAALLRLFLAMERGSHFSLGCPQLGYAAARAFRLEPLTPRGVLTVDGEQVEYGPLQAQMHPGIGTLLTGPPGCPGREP
The test is described as above.

The target in test [7] is T6, Myc-SPHK2-F3 (Δ245–248) (human) (UniProt Q9NRA0).
T6 sequence: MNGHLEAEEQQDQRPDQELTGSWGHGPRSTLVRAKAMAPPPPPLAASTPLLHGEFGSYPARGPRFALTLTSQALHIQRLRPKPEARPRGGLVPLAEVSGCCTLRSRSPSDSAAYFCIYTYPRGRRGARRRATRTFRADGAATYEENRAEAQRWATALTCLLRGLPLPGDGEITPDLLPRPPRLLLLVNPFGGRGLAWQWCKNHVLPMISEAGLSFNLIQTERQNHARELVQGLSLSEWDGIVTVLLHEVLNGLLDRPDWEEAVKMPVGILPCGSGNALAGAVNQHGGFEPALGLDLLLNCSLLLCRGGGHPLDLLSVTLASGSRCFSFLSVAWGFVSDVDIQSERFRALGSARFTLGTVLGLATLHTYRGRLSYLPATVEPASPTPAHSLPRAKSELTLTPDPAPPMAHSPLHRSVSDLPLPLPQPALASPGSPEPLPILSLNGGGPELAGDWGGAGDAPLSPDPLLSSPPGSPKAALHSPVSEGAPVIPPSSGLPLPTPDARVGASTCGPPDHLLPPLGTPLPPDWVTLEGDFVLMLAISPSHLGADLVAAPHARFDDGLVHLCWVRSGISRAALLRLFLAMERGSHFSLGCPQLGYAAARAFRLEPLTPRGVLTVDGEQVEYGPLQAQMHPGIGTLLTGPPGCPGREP
The description is as above.

Two substances from PMC9451060 can be followed below.

Positions count from the first letter of the chain named. Results are given in words; binding and its absence hold for the method and conditions named. In cells and extracts the contact can be indirect. Some binding calls cover weakened binding; strength is not graded here. For some of these results: Tags and fused reporters may be left off the sequences shown.

As for “endogenous HDAC1 (histone deacetylase 1) (from UniProt Q13547 1-482) (enzyme)”, the binding entry in test [1], in test [2] and in test [3] was “binds” each time.
“endogenous TET3 (ten-eleven translocation protein 3) (from UniProt O43151 1-1795) (enzyme)”: the binding result in test [1] is on record as “binds”; in test [4], “no binding (condition: in uninfected A549 cells)”; in test [5], “binds”; in test [6] it was “binds”; in test [7] it was “no binding”; in test [2], “binds”. The binding entry in test [3] is reported as “binds”.
